Experimental data as given in publication PMC9911399, “Two distinct binding modes provide the RNA-binding protein RbFox with extraordinary sequence specificity”.
Positions count from the first letter of the chain named. This is one part of the list.

T1: RBFOX1 RRM RbFoxmut (Fox-RRM*) (Homo sapiens, UniProt Q9NWB1 109-208, R118D;E147R;N151S;E152T)
T1 sequence: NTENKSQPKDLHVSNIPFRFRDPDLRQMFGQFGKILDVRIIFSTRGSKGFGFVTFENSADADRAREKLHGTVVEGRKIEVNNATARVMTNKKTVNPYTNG

B1: UUGACCU (DNA:RNA)
RNA: GGGAGACCGGAAUUCAGAUUGUCCUUGACCUUUAAAUCCCGUCGUAGCCACCA
DNA 1: CAATCTGAATTCCGGTCTCCC
DNA 2: TGGTGGCTACGACGGGATT
B2: ACAACGG (DNA:RNA)
RNA: B1 RNA with U25A, U26C, G27A, C30G, U31G
DNA 1: CAATCTGAATTCCGGTCTCCC
DNA 2: TGGTGGCTACGACGGGATT
B3: AAUGGAG (DNA:RNA)
RNA: GGGAGACCGGAAUUCAGAUUGUCCAAUGGAGUUAAAUCCCGUCGUAGCCACCA
DNA 1: CAATCTGAATTCCGGTCTCCC
DNA 2: TGGTGGCTACGACGGGATT
B4: GUGGGAG (DNA:RNA)
RNA: B3 RNA with A25G, A26U, U27G
DNA 1: CAATCTGAATTCCGGTCTCCC
DNA 2: TGGTGGCTACGACGGGATT
B5: UGCUCCA (DNA:RNA)
RNA: B1 RNA with U26G, G27C, A28U, U31A
DNA 1: CAATCTGAATTCCGGTCTCCC
DNA 2: TGGTGGCTACGACGGGATT
B6: GCCUGGU (DNA:RNA)
RNA: B3 RNA with A25G, A26C, U27C, G28U, A30G, G31U
DNA 1: CAATCTGAATTCCGGTCTCCC
DNA 2: TGGTGGCTACGACGGGATT
B7: GCGUACA (DNA:RNA)
RNA: B1 RNA with U25G, U26C, A28U, C29A, U31A
DNA 1: CAATCTGAATTCCGGTCTCCC
DNA 2: TGGTGGCTACGACGGGATT
B8: AUACAAA (DNA:RNA)
RNA: B3 RNA with A26U, U27A, G28C, G29A, G31A
DNA 1: CAATCTGAATTCCGGTCTCCC
DNA 2: TGGTGGCTACGACGGGATT
B9: UUCUGGG (DNA:RNA)
RNA: B3 RNA with A25U, A26U, U27C, G28U, A30G
DNA 1: CAATCTGAATTCCGGTCTCCC
DNA 2: TGGTGGCTACGACGGGATT
B10: AAACUAC (DNA:RNA)
RNA: B3 RNA with U27A, G28C, G29U, G31C
DNA 1: CAATCTGAATTCCGGTCTCCC
DNA 2: TGGTGGCTACGACGGGATT
B11: CAAAGCA (DNA:RNA)
RNA: B3 RNA with A25C, U27A, G28A, A30C, G31A
DNA 1: CAATCTGAATTCCGGTCTCCC
DNA 2: TGGTGGCTACGACGGGATT
B12: CGGGAGA (DNA:RNA)
RNA: B3 RNA with A25C, A26G, U27G, G29A, A30G, G31A
DNA 1: CAATCTGAATTCCGGTCTCCC
DNA 2: TGGTGGCTACGACGGGATT
B13: AUGCGCA (DNA:RNA)
RNA: B1 RNA with U25A, A28C, C29G, U31A
DNA 1: CAATCTGAATTCCGGTCTCCC
DNA 2: TGGTGGCTACGACGGGATT
B14: CCCCAUG (DNA:RNA)
RNA: B3 RNA with A25C, A26C, U27C, G28C, G29A, A30U
DNA 1: CAATCTGAATTCCGGTCTCCC
DNA 2: TGGTGGCTACGACGGGATT
B15: ACCCUUU (DNA:RNA)
RNA: B3 RNA with A26C, U27C, G28C, G29U, A30U, G31U
DNA 1: CAATCTGAATTCCGGTCTCCC
DNA 2: TGGTGGCTACGACGGGATT
B16: AUCGCGG (DNA:RNA)
RNA: B3 RNA with A26U, U27C, G29C, A30G
DNA 1: CAATCTGAATTCCGGTCTCCC
DNA 2: TGGTGGCTACGACGGGATT
B17: CUUUUUA (DNA:RNA)
RNA: B3 RNA with A25C, A26U, G28U, G29U, A30U, G31A
DNA 1: CAATCTGAATTCCGGTCTCCC
DNA 2: TGGTGGCTACGACGGGATT
B18: CGCCGCA (DNA:RNA)
RNA: B3 RNA with A25C, A26G, U27C, G28C, A30C, G31A
DNA 1: CAATCTGAATTCCGGTCTCCC
DNA 2: TGGTGGCTACGACGGGATT
B19: GAGGCAU (DNA:RNA)
RNA: B3 RNA with A25G, U27G, G29C, G31U
DNA 1: CAATCTGAATTCCGGTCTCCC
DNA 2: TGGTGGCTACGACGGGATT
B20: GACGUCU (DNA:RNA)
RNA: B3 RNA with A25G, U27C, G29U, A30C, G31U
DNA 1: CAATCTGAATTCCGGTCTCCC
DNA 2: TGGTGGCTACGACGGGATT
B21: CGCCAGC (DNA:RNA)
RNA: GGGAGACCGGAAUUCAGAUUGUCCCGCCAGCUUAAAUCCCGUCGUAGCCACCA
DNA 1: CAATCTGAATTCCGGTCTCCC
DNA 2: TGGTGGCTACGACGGGATT
B22: GGAACUU (DNA:RNA)
RNA: B1 RNA with U25G, U26G, G27A, C30U
DNA 1: CAATCTGAATTCCGGTCTCCC
DNA 2: TGGTGGCTACGACGGGATT
B23: UAGGCCG (DNA:RNA)
RNA: B1 RNA with U26A, A28G, U31G
DNA 1: CAATCTGAATTCCGGTCTCCC
DNA 2: TGGTGGCTACGACGGGATT
B24: UCUAAUA (DNA:RNA)
RNA: B1 RNA with U26C, G27U, C29A, C30U, U31A
DNA 1: CAATCTGAATTCCGGTCTCCC
DNA 2: TGGTGGCTACGACGGGATT
B25: AUGUGAU (DNA:RNA)
RNA: B3 RNA with A26U, U27G, G28U, G31U
DNA 1: CAATCTGAATTCCGGTCTCCC
DNA 2: TGGTGGCTACGACGGGATT
B26: CAUUGGA (DNA:RNA)
RNA: B3 RNA with A25C, G28U, A30G, G31A
DNA 1: CAATCTGAATTCCGGTCTCCC
DNA 2: TGGTGGCTACGACGGGATT
B27: GUAGCGC (DNA:RNA)
RNA: B21 RNA with C25G, G26U, C27A, C28G, A29C
DNA 1: CAATCTGAATTCCGGTCTCCC
DNA 2: TGGTGGCTACGACGGGATT
B28: AAUUUGC (DNA:RNA)
RNA: B3 RNA with G28U, G29U, A30G, G31C
DNA 1: CAATCTGAATTCCGGTCTCCC
DNA 2: TGGTGGCTACGACGGGATT
B29: CCAUGUA (DNA:RNA)
RNA: B3 RNA with A25C, A26C, U27A, G28U, A30U, G31A
DNA 1: CAATCTGAATTCCGGTCTCCC
DNA 2: TGGTGGCTACGACGGGATT
B30: UGCGUCC (DNA:RNA)
RNA: B21 RNA with C25U, C28G, A29U, G30C
DNA 1: CAATCTGAATTCCGGTCTCCC
DNA 2: TGGTGGCTACGACGGGATT
B31: UAGGUCU (DNA:RNA)
RNA: B1 RNA with U26A, A28G, C29U
DNA 1: CAATCTGAATTCCGGTCTCCC
DNA 2: TGGTGGCTACGACGGGATT

These binders were tested against T1, RBFOX1 RRM RbFoxmut (Fox-RRM*) (assay: EMSA; HiTS-Eq, 1 nM pool, 10 min; buffer printed only for the single-RNA assays: 10 mM Tris pH 7.5, 150 mM NaCl, 3.4 mM EDTA, 0.001% NP-40, 30 C). Conditions: tags: His6 N-terminal (pET28a); label: 5' 32P.
In short: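 These values rest on relative association constants, computed from read-count changes of each RNA species versus the control reaction and normalised to the cognate motif. Reads came from free RNA recovered by 8% native PAGE after purified RbFox RRM (wild type or mutant) at increasing concentrations was equilibrated for 10 min in 50 µL with 1 nM of a 5′-radiolabelled pool with 7 randomized nucleotides and DNA-annealed flanks.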
In the case of B1, the binding signal is reported as 0.0666 KA relative to UGCAUGU.
In the case of B2, the binding signal is reported as 0.0675 KA relative to UGCAUGU.
With B3 the binding signal was 0.114 KA relative to UGCAUGU.
In the case of B4, the binding signal is reported as 0.114 KA relative to UGCAUGU.
With B5 the binding signal was 0.0911 KA relative to UGCAUGU.
B6 was tested, and the binding signal was 0.211 KA relative to UGCAUGU.
For B7, the binding signal was 0.0806 KA relative to UGCAUGU.
For B8, the binding signal was 0.0876 KA relative to UGCAUGU.
For B9, the binding signal was 0.0634 KA relative to UGCAUGU.
B10 was tested, and the binding signal was 0.0981 KA relative to UGCAUGU.
In the case of B11, the binding signal is reported as 0.108 KA relative to UGCAUGU.
With B12 the binding signal was 0.117 KA relative to UGCAUGU.
For B13, the binding signal was 0.172 KA relative to UGCAUGU.
With B14 the binding signal was 0.112 KA relative to UGCAUGU.
For B15, the binding signal was 0.102 KA relative to UGCAUGU.
For B16, the binding signal was 0.0979 KA relative to UGCAUGU.
With B17 the binding signal was 0.114 KA relative to UGCAUGU.
In the case of B18, the binding signal is reported as 0.173 KA relative to UGCAUGU.
In the case of B19, the binding signal is reported as 0.106 KA relative to UGCAUGU.
B20 was tested, and the binding signal was 0.0691 KA relative to UGCAUGU.
In the case of B21, the binding signal is reported as 0.109 KA relative to UGCAUGU.
With B22 the binding signal was 0.0587 KA relative to UGCAUGU.
In the case of B23, the binding signal is reported as 0.111 KA relative to UGCAUGU.
For B24, the binding signal was 0.108 KA relative to UGCAUGU.
In the case of B25, the binding signal is reported as 0.113 KA relative to UGCAUGU.
For B26, the binding signal was 0.106 KA relative to UGCAUGU.
With B27 the binding signal was 0.123 KA relative to UGCAUGU.
With B28 the binding signal was 0.081 KA relative to UGCAUGU.
For B29, the binding signal was 0.2 KA relative to UGCAUGU.
With B30 the binding signal was 0.091 KA relative to UGCAUGU.
In the case of B31, the binding signal is reported as 0.0862 KA relative to UGCAUGU.
